Test results published in PubChem BioAssay AID686979 (National Center for Advancing Translational Sciences (NCATS), 2013).
Screen size: about 420,000 compounds; about 50,000 (12%) were called active. This list was built around the results that the source calls inconclusive (neither active nor inactive); the mix of calls is not that of the screen. Calls follow the shape of the dose curve; as a rule, active = well fitted inhibition curve with a large enough effect; inconclusive = small, poorly fitted or top-dose-only effect; inactive = flat fitted curve, though single readings scatter. Potencies of inconclusive entries are left out as doubtful fits.

assay: qHTS for Inhibitors of human tyrosyl-DNA phosphodiesterase 1 (TDP1): qHTS in cells in presence of CPT; conditions: chicken DT40 Tdp1-/-;hTDP1 cells + 20 nM CPT, ATP luminescence, 48 h; activity change, negative = growth inhibition: at 46.2 µM (top of the series); also: nearly all actives have a fitted effect of over 55% in size
Method in brief: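 Chicken DT40 Tdp1-/- cells stably complemented with human TDP1 were seeded at 400 cells/well in medium containing 20 nM camptothecin, exposed to pin-transferred compounds, and grown at 37 °C for at least 48 hr. Viability was read as ATP luminescence.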
% is scaled to controls: 0 for no effect and ±100 for the full control effect; potency is read from the fitted curve at half-maximal effect; tags tell the direction and shape of the fitted curve.

Row | SMILES | Potency | activity change, negative = growth inhibition
1 | CCOC(=O)N/N=C(\C)c1ccc(C)c([N+](=O)[O-])c1 | inactive | 
2 | O=S(=O)(c1ccccc1)N1CCC2(CCCN(c3cccc(-c4ccccc4)c3)C2)CC1 | inactive | 
3 | COc1ccc(/C=C/C(=O)N/C(=C\c2ccco2)C(=O)NCCc2nc3ccccc3[nH]2)cc1 | active: 20.6 µM | 
4 | O=[N+]([O-])c1cc([N+](=O)[O-])c2nonc2c1Nc1ccc(O)cc1 | inconclusive [inhibitor, partial curve] | 
5 | O=C(Nc1ccc(Nc2ccncc2)cc1)c1ccc(Nc2ccnc3ccc([N+](=O)[O-])cc23)cc1 | inactive | 
6 | COc1ccc(-c2nc(NC(C)=O)sc2-c2ccccc2)cc1 | inconclusive [inhibitor, single point] | 
7 | CCOc1ccc(N(C)S(=O)(=O)c2ccc3[nH]cc(C(=O)NCC4CCCO4)c(=O)c3c2)cc1 (stereo unspecified) |  | inconclusive: -33.1% [inhibitor]
8 | O=C(Nc1ccccc1)O[C@@H]1C[C@H]2CCCC(=O)N3CC[C@@H](C1)[C@@H]23 | inconclusive [inhibitor, single point] | 
9 | COc1ccc(Cl)cc1NC(=O)c1cnc(N2CCCCC2)c2ccccc12 | inconclusive [inhibitor, partial curve, poor fit] | 
10 | COc1ccc(/C=N/NC(=O)c2cccc(COCC(F)(F)C(F)F)c2)cc1 | inactive | 
11 | CCOC(=O)Cn1c(=O)c2c(nc(Br)n2Cc2ccccc2Cl)n(C)c1=O | active: 18.4 µM | 
12 | COc1ccc(NC(C)=O)cc1CNC(=O)COc1ccccc1C(=O)Nc1cccc(C)c1C | inconclusive [inhibitor, single point] | 
13 | CC(c1ccccc1)N(CC(=O)NC1CCCCC1)S(=O)(=O)c1cccc(C(F)(F)F)c1 (stereo unspecified) | inconclusive [inhibitor, single point] | 
14 | CC(=O)c1cccc(OCC(=O)N(C)CC(=O)NCc2ccco2)c1 | inconclusive [inhibitor, partial curve] | 
15 | COc1ccccc1CNC(=O)c1ccc(-n2c(C)cc3c2CCCC3)cc1 | inconclusive [inhibitor, single point] | 
16 | N#CCCN(C(=O)COC(=O)COc1ccccc1Cc1ccccc1)c1ccccc1 | inactive | 
17 | CC(C)(C)OC(=O)NCCCC[C@H](NC(=O)c1nc[nH]c1C(=O)N1CCc2ccccc2C1)C(=O)OC(C)(C)C | active: 25.9 µM | 
18 | CCOC(=O)c1ccccc1NC(=O)N1CC(C)Oc2ccc(C)cc21 (stereo unspecified) | inconclusive [inhibitor, single point] | 
19 | Clc1ccc(CN2C3=NCCN3c3ccccc32)cc1 | active: 13 µM | 
20 | CCOc1ccc(CCNC(=O)CCC(=O)N2CCOc3ccc(C)cc32)cc1OCC | inconclusive [inhibitor, single point] | 
21 | COc1ccccc1CNC(=O)Nc1nc(C(N)C(C)C)cs1 (stereo unspecified) | inconclusive [inhibitor, single point] | 
22 | O=C1NC2=C(C(=O)CCC2)C(c2cccc([N+](=O)[O-])c2)N1 (stereo unspecified) | inactive | 
23 | COc1cccc(/C=N/NC(=O)CNC(=O)C(c2ccccc2)c2ccccc2)c1O | active: 7.31 µM | 

Row | SMILES | Potency | activity change, negative = growth inhibition
24 | Cc1[nH]c2ccccc2c1C(=O)C(=O)NCc1cccs1 | inactive | 
25 | CCCCOC(=O)/C(C#N)=C\c1ccc(-c2ccc(Cl)cc2)o1 | inactive | 
26 | Nc1c(C(=O)O)sc2nc(-c3ccccc3)cc(-c3ccc(Cl)cc3)c12 | inactive | 
27 | COc1ccc(CN(C)C(=O)Cn2cnc(C(=O)Nc3ccc(C)c(C)c3)n2)cc1OC | active: 18.4 µM | 
28 | O=C(/C=C\Nc1ccc2c(c1)OCO2)c1ccccn1 | inactive | 
29 | CCOc1ccc(NC(=O)CCn2cccn2)cc1 | inactive | 
30 | c1ccc2c(c1)CC/C2=N/Nc1nc2ccccc2[nH]1 | inconclusive [inhibitor, single point] | 
31 | Cc1cc(Nc2ccc(F)cc2)nc(N)n1 | inactive | 
32 | COc1ccc(S(=O)(=O)N2CCCC2C(=O)n2nc(C)cc2C)cc1 (stereo unspecified) | inconclusive [inhibitor, single point] | 
33 | CC(C)(CNC(=O)c1ccc(NS(=O)(=O)c2ccc(F)cc2)cc1)N1CCOCC1 | inactive | 
34 | COc1cccc(OCC(=O)NNC(=O)C(=O)Nc2ccc(OC)cc2OC)c1 | inconclusive [inhibitor, single point] | 
35 | O=C(N/N=C/c1cn(-c2ccccc2)nc1-c1cccs1)c1ccncc1 | inconclusive [inhibitor, single point] | 
36 | Cc1cccc(S(=O)(=O)N(C)C[C@@H]2OCc3cnnn3CCCC(=O)N([C@@H](C)CO)C[C@@H]2C)c1 | inactive | 
37 | CN(C)S(=O)(=O)N1CCN(CC(O)COc2ccc3cc(Br)ccc3c2)CC1 (stereo unspecified) | active: 14.6 µM | 
38 | Cc1cc(C(=O)OCC(=O)NC2CCS(=O)(=O)C2)c(C)n1-c1ccccc1 (stereo unspecified) | inconclusive [inhibitor, partial curve] | 
39 | Cc1ccc(-c2nc3ccccn3c2Nc2ccc3c(c2)OCCO3)o1 | inconclusive [inhibitor, single point] | 
40 | CCCCn1nnnc1C(c1ccccc1)N1CCN(c2ccccn2)CC1 (stereo unspecified) | inactive | 
41 | COc1ccc(NC(=O)Cc2ccc(C)cc2)cc1S(=O)(=O)N1CCCCC1 | inconclusive [inhibitor, partial curve] | 
42 | CCOC(=O)N1CCN(C(=O)c2ccc3c(c2)N(Cc2cccc(Cl)c2)C(=O)c2ccccc2S3=O)CC1 (stereo unspecified) | active: 16.4 µM | 
43 | CC(=O)c1ccc(C(=O)N(Cc2cccnc2)c2nc3c(C)c(C)ccc3s2)cc1 | active: 23.1 µM | 
44 | CCOC(=O)c1cnc2scnn2c1=O | inconclusive [inhibitor, partial curve] | 
45 | CC(C(=O)Nc1ccc(S(=O)(=O)N2CCCC2)cc1)N(C)CC(=O)Nc1cccc(F)c1 (stereo unspecified) | inconclusive [inhibitor, single point] | 
46 | COc1cc2oc(=O)cc(-c3ccc(-c4ccc(C)cc4)cc3)c2c(OC)c1OC | inconclusive [inhibitor, single point] | 
